The record followed here is publication PMC4336329 (PLoS ONE, 2015).

Each structure is given as a SMILES string. In all, about 310,000 compounds went through this assay and about 14,000 (4.5%) showed an effect of 50% or more. The effect is printed as a negative number. The list shows a part of the results.
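Also: peak tail current of the secondary pulse compared with the same well before compound.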

Sequence of human ether-à-go-go-related gene (hERG) potassium channel (Q12809 whole entry, looked up): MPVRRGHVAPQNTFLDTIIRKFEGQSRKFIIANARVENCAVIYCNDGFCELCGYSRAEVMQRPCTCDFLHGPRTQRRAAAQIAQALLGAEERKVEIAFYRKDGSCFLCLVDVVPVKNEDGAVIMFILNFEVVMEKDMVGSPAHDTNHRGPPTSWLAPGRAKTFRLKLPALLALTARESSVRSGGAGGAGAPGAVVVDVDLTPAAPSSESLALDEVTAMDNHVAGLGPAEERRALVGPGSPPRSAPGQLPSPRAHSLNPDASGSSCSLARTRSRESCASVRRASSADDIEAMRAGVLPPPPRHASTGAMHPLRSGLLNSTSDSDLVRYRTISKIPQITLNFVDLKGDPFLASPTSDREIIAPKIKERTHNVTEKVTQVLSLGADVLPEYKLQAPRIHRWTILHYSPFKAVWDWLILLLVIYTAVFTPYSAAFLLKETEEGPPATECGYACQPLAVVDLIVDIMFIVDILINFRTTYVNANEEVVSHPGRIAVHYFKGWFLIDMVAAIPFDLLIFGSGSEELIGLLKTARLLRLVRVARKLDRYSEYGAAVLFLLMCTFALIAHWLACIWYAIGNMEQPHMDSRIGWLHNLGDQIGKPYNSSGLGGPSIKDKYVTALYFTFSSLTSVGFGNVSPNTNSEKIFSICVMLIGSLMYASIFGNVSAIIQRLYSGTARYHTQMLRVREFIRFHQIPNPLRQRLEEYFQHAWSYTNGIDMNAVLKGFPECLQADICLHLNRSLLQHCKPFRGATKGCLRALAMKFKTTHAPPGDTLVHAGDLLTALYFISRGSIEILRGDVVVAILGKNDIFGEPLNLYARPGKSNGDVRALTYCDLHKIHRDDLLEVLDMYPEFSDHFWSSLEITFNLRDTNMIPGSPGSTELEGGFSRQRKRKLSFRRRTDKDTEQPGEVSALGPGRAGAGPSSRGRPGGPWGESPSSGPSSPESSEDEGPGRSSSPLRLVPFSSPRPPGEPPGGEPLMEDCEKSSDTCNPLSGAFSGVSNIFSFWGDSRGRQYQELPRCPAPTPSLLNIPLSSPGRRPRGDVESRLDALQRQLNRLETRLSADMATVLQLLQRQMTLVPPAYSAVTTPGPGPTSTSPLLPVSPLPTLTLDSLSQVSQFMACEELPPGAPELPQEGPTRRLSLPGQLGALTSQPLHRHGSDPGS

The assay has as its target human ether-à-go-go-related gene (hERG) potassium channel (human, UniProt Q12809). Put plainly: primary screen, population patch clamp on CHO cells stably expressing hERG.
With `O=C(CNc1ccc(Br)cc1)c1ccccc1`, the “hERG current change (%, negative = inhibition) at 10uM” value turned out to be 10.2%.
The figure for `O=Cc1cc(N=Nc2ccccc2Cl)ccc1O` is 16.3%; for `Cc1cc(NC(=O)CCCC(=O)O)nc(C)n1` it is 0.176%; for `Cc1[nH]n(-c2ccccc2)c(=O)c1CCOC(=O)c1ccc(C(F)(F)F)cc1` it is 11.6%.
On to `CN(CC(=O)Nc1cccc(F)c1)C(=O)CCCN1C(=O)c2cccc3cccc(c23)C1=O`, for which the “hERG current change (%, negative = inhibition) at 10uM” value is recorded as -38.6%.
For the compound `COc1cc(/C=C\C(=O)NCc2ccc3[nH]c(C)cc3c2)cc(OC)c1OC`, the “hERG current change (%, negative = inhibition) at 10uM” value is recorded as 12%.
Regarding `CN1CCN(CCC(=O)N2c3ccccc3Sc3ccc(Cl)cc32)CC1`, the “hERG current change (%, negative = inhibition) at 10uM” value was -48.9%.
As for `O=C(NNC(=O)C1CC(=O)N(Cc2ccccc2)C1)c1ccc(F)cc1` (centres unmarked), the figure is 2.46%.
As for `CCOC(=O)N1CN(C(=O)OCC)CN(C(=O)OCC)C1`, the figure is 17.6%; as for `O=S(=O)(Cc1ccccc1)NCC1CCCO1` (centres unmarked), 4.08%; as for `CN1C(=O)CSC1=S`, 10.4%.
Take `CN(CC(=O)Nc1ccccc1Cl)C(=O)COC(=O)/C=C/c1ccccc1`: the “hERG current change (%, negative = inhibition) at 10uM” value is given as -15.7%.
For the compound `CC1CN(C(=O)c2ccc(Cl)c(S(=O)(=O)NCc3ccco3)c2)CC(C)O1` (centres unmarked), the “hERG current change (%, negative = inhibition) at 10uM” value was -6.14%.
As for `CCOC(=O)[C@@]1(C#N)[C@@H]2C=CC(C(N)=O)=CN2[C@@H](C(N)=O)[C@@H]1c1cccc(Cl)c1`, the figure is -5.84%; as for `CN(Cc1ccccc1)C(=O)CSc1nc2c(c(C(F)(F)F)n1)CCc1ccccc1-2`, 14.8%.
The figure for `CCCCN(Cc1cc2cccc(C)c2[nH]c1=O)S(C)(=O)=O` is -2.84%; for `Cc1ccc(C(=O)NCCN2CCCC2)cc1.Cl` it is -5.44%.
As for `CC1(C)[N+]([O-])=C2C(=[N+]([O-])C1(C)C)c1ccccc1/C2=N\O`, the figure is 0.00468%; as for `CC1(C)Cc2nc3sc(C(=O)NCCCO)c(N)c3cc2CS1`, 18%; as for `CCc1ccc(-c2cc(C)no2)cc1S(=O)(=O)Nc1cccc(CN2CCCC2)c1`, -30.4%.
Take `O=C1Nc2ccccc2C(=O)N2[C@H](c3ccc(F)cc3)[C@@H]3C(=O)N(Cc4ccccc4)C(=O)[C@@H]3[C@H]12`: the “hERG current change (%, negative = inhibition) at 10uM” value is -42.5%.
As for `CSc1ccc(C2=CC(=O)C[C@H](c3ccc4c(c3)OCO4)C2)cc1`, the figure is 25.8%.
Regarding `Cc1ccc2[nH]c3nc(SCCN4CCOCC4)nnc3c2c1`, the “hERG current change (%, negative = inhibition) at 10uM” value turned out to be 8.91%.
As for `Cc1ccc(Sc2c(C)nn(C(=O)CNS(=O)(=O)c3ccc(F)cc3)c2C)cc1`, the “hERG current change (%, negative = inhibition) at 10uM” value was -6.2%.
The figure for `COc1cc(/C=C/C(=O)Nc2nnc(CC(C)C)s2)cc(OC)c1OC` is -27.8%; for `Cc1csc(Sc2ccc(C(=O)OCC(=O)Nc3ccc(F)cc3[N+](=O)[O-])cc2[N+](=O)[O-])n1` it is 0.517%.
Regarding `CN1CCc2c(sc(NC(=O)c3ccc(S(=O)(=O)N4CCCC4)cc3)c2C(N)=O)C1`, the “hERG current change (%, negative = inhibition) at 10uM” value was determined as 10.3%.
On to `Fc1cccc(Cl)c1CSc1ccc2nnc(-c3ccccn3)n2n1`, for which the “hERG current change (%, negative = inhibition) at 10uM” value is given as -13.5%.
For the compound `COc1cc(OC)cc(C(=O)NC(=S)N(Cc2ccccc2)C(C)C)c1`, the “hERG current change (%, negative = inhibition) at 10uM” value is 5.17%.
The figure for `O=C(c1ccc(OC2CCN(CCO)CC2)cc1)N1CCCC1` is 18.1%; for `CCN(CC)C(=O)Cn1cc(S(=O)(=O)CC(=O)NCc2ccc(C)cc2)c2ccccc21` it is -15.3%.
The figure for `COc1cccc(NS(=O)(=O)c2cc3[nH]c(=O)c(=O)[nH]c3cc2C)c1` is 25.1%.
As for `CCc1cc(=O)oc2cc(O[C@@H]3O[C@H](CO)[C@@H](O)[C@H](O)[C@H]3O)c(Cl)cc12`, the figure is 16.3%.
In the case of `COC(=O)N1CCN(CCc2ccccc2)CC1`, the “hERG current change (%, negative = inhibition) at 10uM” value is given as 5.83%.
With `CC(CCc1ccccc1)OS(N)(=O)=O` (centres unmarked), the “hERG current change (%, negative = inhibition) at 10uM” value was found to be 8.74%.
On to `Cc1ccc(NS(=O)(=O)c2cccc(C(=O)O)c2)cc1S(=O)(=O)N1CCCCC1`, for which the “hERG current change (%, negative = inhibition) at 10uM” value came to 3.3%.
The figure for `COC(=O)N1C(=O)[C@@](CC(C)C)(c2ccccc2)N1C(=O)OC` is -4.25%; for `CCCOC(=O)c1cccc(NC(=O)COc2ccc([N+](=O)[O-])cc2)c1` it is -26.9%; for `CC(C)N(Cc1cn(C)nc1-c1cccc(Cl)c1)Cc1nccn1C` it is -37.2%.
As for `O=[n+]1cc(-c2cc3ccccc3o2)n([O-])c2c1CCCC2`, the figure is -10.6%; as for `Cc1cc(NC(=O)CSc2nnc(-c3ccccc3C)n2C)no1`, 26%.
As for `O=C1CSC(c2cccc([N+](=O)[O-])c2)N1Cc1ccccc1` (centres unmarked), the figure is 5.65%; as for `CC(C)CN(CC(C)C)S(=O)(=O)N1CCC(C(=O)NCc2ccco2)CC1`, 19.5%; as for `O=C(NCCCn1ccnc1)c1nc(Cn2cc(Br)cn2)no1`, 6.06%.
For the compound `O=C(c1ccc(Cl)cc1)[C@@H]1[C@@H]2C(=O)N(c3ccccc3)C(=O)[C@@H]2C2c3ccccc3C=NN21` (some centres unmarked), the “hERG current change (%, negative = inhibition) at 10uM” value is given as -4.15%.
`O=C(c1ccco1)N1CCC(c2nc3c(nnn3Cc3ccccc3Cl)c(=O)[nH]2)CC1`: the “hERG current change (%, negative = inhibition) at 10uM” value is given as -48.6%.
As for `Nc1nc(CSC(=S)N2CCOCC2)nc(Nc2ccc(F)cc2)n1`, the figure is 7.31%.
As for `CC(NC(=O)Cc1ccc(F)cc1)C(c1cccs1)N1CCN(C)CC1` (centres unmarked), the figure is -15.2%; as for `O=C(CSc1ccc2ccccc2n1)NC1CC1`, 11.3%; as for `O=S(=O)(c1ccc(NC(=S)NCc2cccnc2)cc1)N1CCCCC1`, -7.75%.
On to `CSc1nnc(-c2ccccc2N=Cc2c(C)[nH]n(-c3ccc4ccccc4c3)c2=O)c(=O)[nH]1`, for which the “hERG current change (%, negative = inhibition) at 10uM” value is on record as -13.2%.
The figure for `COCCC1CCCCN1C(=O)c1cccc(OC2CCN(C3CCCC3)CC2)c1` (centres unmarked) is 17.6%; for `Cl.O=C(CN1CCN(c2ccc(F)cc2)CC1)NCc1cccs1` it is -15.4%.
With `CCOc1ccc(OCC)c(NC(=O)C2CCCN(S(=O)(=O)c3cnc[nH]3)C2)c1` (centres unmarked), the “hERG current change (%, negative = inhibition) at 10uM” value is listed as 6.54%.
As for `O=C(O)c1cccnc1SCc1ccccc1`, the “hERG current change (%, negative = inhibition) at 10uM” value is on record as -1.22%.
The figure for `CC(C)NS(=O)(=O)c1ccc(OCC(=O)N2CCN(c3ccccc3)CC2)cc1` is -8.08%.
As for `Cc1nc(NC(C)(C)CO)c([N+](=O)[O-])cc1[N+](=O)[O-]`, the figure is -3.55%; as for `O=C1CN(S(=O)(=O)c2cc(C(=O)O)ccc2Cl)c2ccccc2N1`, 15.3%; as for `CNC(=O)O/N=C(\C)Cc1nnn(-c2cc(C)on2)n1`, 11.2%.
The figure for `CCN(CC)c1cc2nc(C)n(Cc3ccccc3)c(=O)c2cc1NC(=O)C1CC1` is -14.2%.
`CC(=O)Nc1ccc(Sc2ccccc2C(=O)O)cc1`: the “hERG current change (%, negative = inhibition) at 10uM” value came out at 17.5%.
For `CN(Cc1ccc(C(F)(F)F)cc1)C(=O)c1ccc(Oc2ccccc2)cc1`, the “hERG current change (%, negative = inhibition) at 10uM” value stood at 13.1%.
The figure for `COc1ccc(Nc2cc(Sc3ccc(OC)cc3)ncn2)cc1` is -37.9%; for `COc1ccc(NS(=O)(=O)c2ccc(F)cc2F)cn1` it is 10.4%.
As for `O=[N+]([O-])c1ccc(N2CCSCC2)cc1`, the figure is -10.4%; as for `COC(=O)N/N=C(\C)c1ccc(OC(F)F)cc1OC(F)F`, 2.08%.
Take `Cc1ccccc1-n1c(Cn2c(=O)sc3ccccc32)nnc1SCC(=O)N1CCOCC1`: the “hERG current change (%, negative = inhibition) at 10uM” value is recorded as 2.07%.
The figure for `O=C(c1ccc(CS(=O)(=O)c2ccccc2)o1)N1CCN(c2ccccc2)CC1` is -11.6%.
`CC(C)(CNC(=O)c1ccc(NS(=O)(=O)c2ccc(Br)cc2)cc1)N1CCOCC1`: the “hERG current change (%, negative = inhibition) at 10uM” value was -19.4%.
The figure for `CC1(C)C(=O)OC(/C=C\c2cccc([N+](=O)[O-])c2)C(C)(C)C1=O` (centres unmarked) is 5.39%.
Take `C/C=C/C(=O)Nc1cccc(C2=NOC3(C2)C[C@@H](C(N)=O)N(C(=O)/C(C)=C/C)C3)c1` (some centres unmarked): the “hERG current change (%, negative = inhibition) at 10uM” value stood at 9.42%.
Turning to `Cc1ccc(C(=O)N[C@H](C(=O)OCc2cc(=O)n3c(n2)sc2ccccc23)C(C)C)cc1`, the “hERG current change (%, negative = inhibition) at 10uM” value was -18.8%.
As for `COc1ccc2ccccc2c1CNC(=O)CC1C(=O)NCCN1CC(C)(C)C` (centres unmarked), the figure is 4.41%; as for `Brc1ccc(-c2nn3c(Cc4ccccc4)nnc3s2)o1`, 3.39%.
As to `Cc1cc(C)nc(NC(=O)c2ccc(Cl)c([N+](=O)[O-])c2)n1`, the “hERG current change (%, negative = inhibition) at 10uM” value is given as -0.62%.
As for `C/C(=N\OCC(=O)NCC(F)(F)F)c1cc2ccccc2o1`, the figure is -1.58%; as for `O=C(Nc1ccc(F)cc1)c1ccc(S(=O)(=O)NCc2cccnc2)cc1`, -2.09%.
The figure for `C[C@@H]1NC(=O)[C@@]2(C)[C@@H](c3ccccc3)[C@H]3COc4ccc(Cl)cc4[C@@H]3N2C1=O` is 15.4%; for `CCn1cc(C(=O)N[C@H](C(=O)NC(C)(C)CO)C(C)C)c(=O)c2cc3c(cc21)OCO3` it is 21.9%.
The figure for `CN(C(=O)CN1C(=O)/C(=C/c2ccccc2Cl)SC1=S)C1CCS(=O)(=O)C1` (centres unmarked) is -4.31%; for `CCc1sc(C(=O)NCCCN2CCCC2=O)cc1Br` it is 5.8%.
For `Cc1ccc2oc(-c3cccc(NC(=O)c4ccc(Br)o4)c3)nc2c1`, the “hERG current change (%, negative = inhibition) at 10uM” value worked out at 0.0188%.
As for `COc1ccccc1NC(=S)N1CCCc2ccccc21`, the figure is 8.53%; as for `CC(C)(C)P(=O)(NCc1ccccc1)c1ccccc1` (centres unmarked), 25.2%; as for `O=C(COc1ccccc1)NC1C(=O)N2C(C(=O)O)=C(Cl)CSC12` (centres unmarked), 2.5%.
As for `C=CCNc1cnn(-c2ccccc2)c(=O)c1Cl`, the figure is 23.5%.
